# Experimental data published in the supplement of paper PMC4604168 (melanoma cell lines).
# This is one part of the list. Repeats are few or missing, and single values can be far off.
# System: WM451Lu
# Assay: cell count relative to DMSO control; melanoma cells; higher = more viable cells
# Details: library dose: low library concentration; 72 h
# 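Further: cell number obtained by counting DAPI-stained nuclei in high-throughput microscope images with image analysis software, screen run in 1,536-well plates.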
row,Structure (SMILES),cell count [%]
1,"O=C(Oc1ccc([N+](=O)[O-])cc1)N1CCC(C(O)(c2ccc3c(c2)OCO3)c2ccc3c(c2)OCO3)CC1 + CCCCCCCCCCCC1=C(O)C(=O)C=C(O)C1=O [Embelin] (first compound 1 µM, partner dose 1.2 µM)",114
2,"COc1ccc(C2=N[C@@H](c3ccc(Cl)cc3)[C@@H](c3ccc(Cl)cc3)N2C(=O)N2CCNC(=O)C2)c(OC(C)C)c1 [Nutlin-3] + C[C@]12O[C@H](C[C@]1(O)CO)n1c3ccccc3c3c4c(c5c6ccccc6n2c5c31)CNC4=O [Lestaurtinib] (first compound 0.1 µM, partner dose 0.004 µM)",98.3
3,"Cc1cn(-c2cc(NC(=O)c3ccc(C)c(Nc4nccc(-c5cccnc5)n4)c3)cc(C(F)(F)F)c2)cn1 [nilotinib] + C[C@]12O[C@H](C[C@]1(O)CO)n1c3ccccc3c3c4c(c5c6ccccc6n2c5c31)CNC4=O [Lestaurtinib] (first compound 0.2 µM, partner dose 0.004 µM)",114
4,"COc1cc2c(Oc3ccc4[nH]c(C)cc4c3F)ncnc2cc1OCCCN1CCCC1 [cediranib] + C/C(O)=C(\C#N)C(=O)Nc1cc(Br)ccc1Br [LFM-A13] (first compound 0.4 µM, partner dose 2 µM)",98.3
5,"O=C(/C=C/c1cccnc1)NCCCCC1CCN(C(=O)c2ccccc2)CC1 + Cc1cc(SCc2sc(-c3ccc(C(F)(F)F)c(F)c3)nc2C)ccc1OCC(=O)O [GW0742] (first compound 0.01 µM, partner dose 2 µM)",104
6,"Cn1c(=O)n(-c2ccc(C(C)(C)C#N)cc2)c2c3cc(-c4cnc5ccccc5c4)ccc3ncc21 + N.N.[Cl][Pt][Cl] [cisplatin] (first compound 0.004 µM, partner dose 1.6 µM)",102
7,"Cc1cc(N2CCOCC2)cc2[nH]c(-c3c(NC[C@@H](O)c4cccc(Cl)c4)cc[nH]c3=O)nc12 + Cc1cc(SCc2sc(-c3ccc(C(F)(F)F)c(F)c3)nc2C)ccc1OCC(=O)O [GW0742] (first compound 0.2 µM, partner dose 2 µM)",101
8,"CCCCCCCCc1ccc(CCC(N)(CO)CO)cc1 [fingolimod] + C[As](C)SC[C@H](NC(=O)CC[C@H](N)C(=O)O)C(=O)NCC(=O)O [Darinaparsin] (first compound 2 µM, partner dose 0.4 µM)",108
9,"CNC(=O)c1cc(Oc2ccc(NC(=O)Nc3ccc(Cl)c(C(F)(F)F)c3)cc2)ccn1 [sorafenib] + Cc1cc(SCc2sc(-c3ccc(C(F)(F)F)c(F)c3)nc2C)ccc1OCC(=O)O [GW0742] (first compound 0.4 µM, partner dose 2 µM)",99
10,"CS(=O)(=O)CCNCc1ccc(-c2ccc3ncnc(Nc4ccc(OCc5cccc(F)c5)c(Cl)c4)c3c2)o1 [lapatinib] + O=C(Oc1ccc([N+](=O)[O-])cc1)N1CCC(C(O)(c2ccc3c(c2)OCO3)c2ccc3c(c2)OCO3)CC1 [JZL184] (first compound 0.8 µM, partner dose 1 µM)",113
11,"COc1ccc2c(c1)CCC1C2CCC2(C)C(NCCCCCCN3C(=O)C=CC3=O)CCC12 (stereo unspecified) + C/C(O)=C(\C#N)C(=O)Nc1cc(Br)ccc1Br [LFM-A13] (first compound 0.4 µM, partner dose 2 µM)",102
